Assay results as given in the supplement of paper PMC7826260.
This is one part of the list. Cleavage of a single-stranded DNA pool by Rep nickase domains was read by sequencing at 3 µM enzyme and 37 °C for 1 h; the strands have 90 letters, of which the middle is given. The score is log2 (uncut reads / reads without enzyme); more negative means more cut, near 0 not cut, and no call is made. Shares of all reads are compared; values above 0 arise when much of the pool is cut.

Experiments:
Experiment in all cases: uncleaved DNA left, log2 of reads against the no-enzyme library (log2 ratio); higher = less cleavage (more negative = more Rep cleavage of the k-mer); sequences stand for … in CTCGTCCG…ACCGGAGA
[1] = tested on: T1, Rep nickase domain of Muscovy duck circovirus
T1 sequence (protein, residues 1-111, tag omitted): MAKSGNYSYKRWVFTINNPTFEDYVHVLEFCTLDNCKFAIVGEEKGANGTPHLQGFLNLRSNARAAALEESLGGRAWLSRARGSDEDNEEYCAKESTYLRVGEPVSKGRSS
Protocol: (§1)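 A pool of 90-nt single-stranded DNAs with seven random bases just before the constant AC of the nick site (name = the seven bases) was cut by 3 µM recombinant His6-SUMO-tagged Rep nickase domain (300 nM DNA, 50 mM HEPES pH 8.0, 50 mM NaCl, 1 mM MnCl2, 1 h, 37 °C, three replicates). Uncut DNA was amplified and sequenced.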

[2] = tested on: T2, Rep nickase domain of banana bunchy top virus
T2 sequence (protein, residues 1-94, tag omitted): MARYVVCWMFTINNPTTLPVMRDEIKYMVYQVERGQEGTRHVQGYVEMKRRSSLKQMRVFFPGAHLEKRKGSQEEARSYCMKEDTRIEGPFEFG
Protocol: as §1

[3] = tested on: T3, Rep nickase domain of cabbage leaf curl virus
T3 sequence (protein, residues 1-116, tag omitted): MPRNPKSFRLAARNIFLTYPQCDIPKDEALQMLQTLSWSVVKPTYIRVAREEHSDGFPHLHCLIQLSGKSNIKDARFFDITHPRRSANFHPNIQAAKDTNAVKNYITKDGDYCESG
Protocol: as §1

[4] = tested on: T4, Rep nickase domain of chickpea chlorotic dwarf virus
T4 sequence (protein, residues 1-124, tag omitted): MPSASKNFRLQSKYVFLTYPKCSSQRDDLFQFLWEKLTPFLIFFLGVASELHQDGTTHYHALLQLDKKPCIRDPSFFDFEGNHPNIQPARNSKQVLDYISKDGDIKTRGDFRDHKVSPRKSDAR
Protocol: as §1

[5] = tested on: T5, Rep nickase domain of faba bean necrotic yellows virus
T5 sequence (protein, residues 1-98, tag omitted): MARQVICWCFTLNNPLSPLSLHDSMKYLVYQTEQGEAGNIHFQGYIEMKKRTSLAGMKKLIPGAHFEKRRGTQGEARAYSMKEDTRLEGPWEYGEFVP
Protocol: as §1

[6] = tested on: T6, Rep nickase domain of maize striate mosaic virus
T6 sequence (protein, residues 1-117, tag omitted): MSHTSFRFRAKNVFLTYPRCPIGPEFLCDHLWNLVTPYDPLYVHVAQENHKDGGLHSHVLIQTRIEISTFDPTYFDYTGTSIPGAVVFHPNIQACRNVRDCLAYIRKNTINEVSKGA
Protocol: as §1

[7] = tested on: T7, Rep nickase domain of porcine circovirus 2
T7 sequence (protein, residues 2-116, tag omitted): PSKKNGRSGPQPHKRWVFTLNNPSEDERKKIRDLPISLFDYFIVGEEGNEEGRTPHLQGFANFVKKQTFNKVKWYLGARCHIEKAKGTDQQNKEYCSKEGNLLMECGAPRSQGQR
Protocol: as §1

[8] = tested on: T8, Rep nickase domain of tomato golden mosaic virus
T8 sequence (protein, residues 1-124, tag omitted): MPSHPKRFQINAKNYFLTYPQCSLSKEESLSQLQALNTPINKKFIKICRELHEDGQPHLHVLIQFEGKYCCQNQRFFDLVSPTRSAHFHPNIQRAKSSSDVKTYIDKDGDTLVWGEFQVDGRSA
Protocol: as §1

[9] = tested on: T9, Rep nickase domain of tomato yellow leaf curl virus
T9 sequence (protein, residues 1-136, tag omitted): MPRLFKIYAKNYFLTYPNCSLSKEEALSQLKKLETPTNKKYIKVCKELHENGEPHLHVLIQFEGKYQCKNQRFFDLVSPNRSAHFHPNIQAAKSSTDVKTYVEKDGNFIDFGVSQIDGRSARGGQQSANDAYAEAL
Protocol: as §1

[10] = tested on: T10, Rep nickase domain of wheat dwarf virus
T10 sequence (protein, residues 1-137, tag omitted): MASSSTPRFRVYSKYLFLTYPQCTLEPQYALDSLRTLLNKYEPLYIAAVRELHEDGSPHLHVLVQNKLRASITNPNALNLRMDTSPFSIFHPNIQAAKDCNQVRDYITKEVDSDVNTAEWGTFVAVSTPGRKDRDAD
Protocol: as §1

Sequence | uncleaved DNA left (log2) [1] | uncleaved DNA left (log2) [2] | uncleaved DNA left (log2) [3] | uncleaved DNA left (log2) [4] | uncleaved DNA left (log2) [5] | uncleaved DNA left (log2) [6] | uncleaved DNA left (log2) [7] | uncleaved DNA left (log2) [8] | uncleaved DNA left (log2) [9] | uncleaved DNA left (log2) [10]
GCTCTTG | 0.104 | -0.104 | -0.28 | -0.402 | -0.0537 | -0.626 | 0.152 | 0.0565 | 0.096 | -0.0749
ATCAACA | -0.0414 | 0.0192 | -0.132 | -2.45 | -0.0688 | -0.699 | -0.0316 | 0.0511 | 0.0138 | 0.00993
AGGTAGC | 0.108 | 0.0892 | -0.194 | -0.302 | 0.0378 | -0.676 | 0.186 | 0.0769 | 0.087 | 0.104
CGCCATG | -0.174 | -0.0769 | -0.107 | 0.0445 | -0.107 | -0.0114 | -0.0288 | -0.142 | 0.0685 | 0.108
GTCATAG | 0.0824 | 0.173 | 0.219 | 0.826 | 0.101 | 1.35 | 0.237 | 0.141 | -0.00753 | 0.0731
GCGCTCA | -0.148 | -0.106 | -0.00884 | -0.188 | -0.118 | 0.0656 | -0.16 | -0.112 | -0.0359 | 0.0365
ACATAAA | 0.0331 | 0.0139 | -0.159 | -0.145 | 0.0181 | -0.801 | 0.114 | 0.0517 | -0.136 | -0.0256
AAGGTCC | -0.12 | -0.051 | -0.0306 | 0.521 | -0.168 | 0.34 | -0.0114 | -0.0968 | -0.216 | -0.0586
ATAGACT | -0.0124 | 0.0866 | 0.0167 | -0.789 | 0.00489 | 0.729 | 0.101 | 0.122 | -0.0563 | -0.00267
GAATGGT | -0.738 | -0.0628 | -2.81 | -1.99 | -0.0717 | -1.44 | -3.01 | -1.87 | 0.0167 | -2.21
ATTGAAC | 0.0339 | 0.0049 | 0.056 | 0.369 | 0.141 | 0.219 | 0.0625 | 0.0642 | -0.0337 | 0.039
CTGCCGG | -0.0022 | -0.0707 | 0.315 | 0.97 | 0.0808 | 0.773 | 0.124 | 0.0939 | -0.00193 | 0.025
ATTTGCC | -0.00232 | -0.0425 | -0.667 | -0.481 | -0.0516 | -1.04 | 0.113 | -0.107 | 0.0258 | -0.177
ACCACCA | -0.213 | -0.208 | -0.288 | -1.37 | -0.102 | -0.848 | -0.269 | -0.115 | -0.184 | -0.115
TCCCACG | -0.218 | -0.00115 | -0.837 | -1.03 | -0.00342 | -1.15 | -0.106 | -0.219 | -0.153 | -0.116
AGTACCA | -0.0218 | 0.159 | 0.181 | -0.354 | -6.58e-05 | 0.645 | -0.479 | 0.0311 | 0.0658 | 0.169
ATTTTCT | -3.06 | -1.58 | -0.185 | -2.5 | 0.0678 | -0.769 | -3.47 | -0.052 | 0.1 | -0.0499
CGACACG | 0.175 | 0.097 | -0.173 | -0.105 | 0.0539 | -0.58 | 0.116 | -0.000739 | 0.0626 | 0.0597
TTAATAC | -1.13 | -0.159 | 0.183 | -1.02 | -0.128 | -0.446 | -1.92 | -0.04 | -0.0271 | -0.192
TATTGGC | 0.0169 | -0.0435 | -0.422 | -0.854 | -0.0454 | -1.16 | -0.00996 | -0.1 | 0.019 | -0.022
TTAACTA | -0.0374 | 0.0729 | -0.0414 | -1.27 | 0.0307 | 0.209 | -0.0387 | -0.00898 | 0.0756 | 0.0671
CGATGGG | 0.0772 | 0.0787 | -0.403 | -0.419 | 0.142 | -0.807 | 0.142 | 0.0114 | 0.102 | -0.111
GACGCAG | 0.156 | 0.107 | -0.0516 | 0.062 | 0.0888 | -0.304 | 0.156 | 0.0469 | 0.0243 | -0.0494
TAACCGT | -0.0672 | -0.0663 | -1.89 | -2.79 | 0.0801 | -1.19 | -0.359 | -0.141 | 0.0117 | -0.331
TTATTGT | -0.855 | -0.0518 | -1.37 | -1.54 | 0.0938 | -1.36 | -0.685 | -0.244 | 0.0469 | -0.245
CTTTGAT | -0.652 | -0.172 | -0.141 | -0.309 | -0.0771 | -0.463 | -2.03 | -0.0614 | -0.123 | -0.0519
GTGGACT | -0.000757 | 0.138 | 0.844 | 1.96 | -0.103 | 2.3 | 0.168 | 0.0961 | -0.0308 | 0.143
CGCACGA | -0.0479 | -0.00296 | -0.109 | -0.0602 | 0.01 | -0.416 | -0.0988 | -0.0562 | 0.0572 | -0.116
ACCAGCG | -0.0319 | 0.091 | 0.343 | 1.78 | 0.00755 | 1.7 | 0.213 | -0.00354 | 0.106 | -0.0112
TATTCGG | -0.12 | -0.0257 | 0.504 | 1.41 | 0.00838 | 1.88 | 0.0298 | 0.0954 | -0.12 | 0.0134
